B1: CPEB3 Ribozyme (parent)
chain: UAACAGGGGGCCACAGCAGAAGCGUUCACGUCGCAGCCCCUGUCAGAUUCUGGUGAAUCUGCGAAUUCUGCUGUAUAUCUC

The source gives no read counts; variants with many changes may rest on few reads.

The variants in the data set derive from B1. In words: self-cleavage, relative activity (ratio to wild type); higher = more cleavage; in vitro, sequencing. The gist of the method:
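CPEB3 self-cleaving ribozyme mutant libraries were made by rounds of error-prone PCR, barcoded, and transcribed in vitro with T7 RNA polymerase for 5 hours at 37°C. Cleavage occurred during transcription and a 15 min DNase I step before EDTA stop. RNAs were reverse transcribed with template switching and Illumina-sequenced, with DNA sequencing mapping barcodes to variants. Relative activity is the variant's cleaved/total read fraction divided by wild type's (minimum 5 reads), averaged across three batches.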
For UAACAGGGGGCCACAGCAGAGGCGUUCACGUCGCGCCCCCUGUCAGAUUCUGGCGGAUCCGCGAAUUCUGCUGUAUAUCUC, the self-cleavage is 0.12.

For the variant UAACAGGGGGCCACAGCAGAGGCGUUCACGUCGCAGCCCCUGUCGGAUUCAGGUGAGACUGCGAAUUCCGCUGUAUAUCUC, the self-cleavage is 0.15.

UAACAGGGGGCCACAGCAGAGGCGUUCGCGUCGCAGCCCCUGUCAGAUUCCGGAGAGUCCGCGAAUACUGCUGUAUAUCUC: the self-cleavage was found to be 0.04.

For the variant UAACAGGGGGCCACAGCAGAGGCGUUCACGUCGCGACCCCUGUCAGAUUCUGGUGAAUCUACGAAUUCUGCUGUAUACCUC, the self-cleavage is 0.33.

In the case of UAACAGGGGGCCACAGCAGAGGCGUUCACGUCGCGGCCCCUGUCAGAUUCUGGUGAAUCUGCGAAUUCCGCUGUAUAUCUC, the self-cleavage stood at 0.46.

In the case of UAACAGGGGGCCACAGCAGAGGCGUUCGCGUCGCAGCCCCUGUCAGAUUCCGGAGAAUCUGCGAAUUCUGCUGUAUAUCUC, the self-cleavage was 0.35.

On to UAACAGGGGGCCACAGCAGAGGCGUUCACGUCGCUGCCCCUGCCAGAUUCUGGUGAAUCUGCGAAUUCUGCUGUAUAUCUC, for which the self-cleavage is 0.36.

For the variant UAACAGGGGGCCACAGCAGAGGCGUUCACGUCGCAGCCCCUGUCGGAUUCUGGUGAAUCUGCGGAUUCUGCUGUACAUCUC, the self-cleavage is 0.36.

For UAACAGGGGGCCACAGCAGAGGCGUUCACGUCGCAGCCCCUGUCGGAUUCUGGUGAAUCUGCGGAUUCUGCUGUAUAUCUC, the self-cleavage stood at 0.32.

Regarding UAACAGGGGGCCACAGCAGAGGCGUUCGCGUCGCAGCCCCUGUCAGAUCCUGGUGAAUCUGCGAAUUCUGCUGUAUAUCUC, the self-cleavage was 0.13.

UAACAGGGGGCCACAGCAGAGGCGUUCACGUCGCGGCCCCGGUCAGAUUCUGGUGAGUCUGCGAAUUCUGCUGAAUAUCUC: the self-cleavage was 0.07.

Turning to UAACAGGGGGCCACAGCAGAGGCGUUCACGUCGCAGCCCCUGUCUGAUUCUGGUGAAUCUGCGAAUUCUGCCGUACAUCUC, the self-cleavage came out at 0.14.

Turning to UAACAGGGGGCCACAGCAGAGGCGUUCACGUCGCAGCCCCUGUCGGAUUCUGGUGAAUCUGCGAAUUCAGCUGUAUAUCUC, the self-cleavage is 0.12.

Take UAACAGGGGGCCACAGCAGAGGCGUUCACGUCGCGGCCCCUGUCGGAUCCUGGUGAAUCUGCGAAUUCUGCUGAAUAUCUC: the self-cleavage was determined as 0.19.

As for UAACAGGGGGCCACAGCAGAGGCGUUCACGUCGCGGCCCCUGACAGAUUCUGGUGAAUCUGCGAAUUCUGCUGUAUAUCUC, the self-cleavage was found to be 1.1.

As to UAACAGGGGGCCACAGCAGAGGCGUUCACGUCGCAGCCCCUGUCGGAUUCUGGUGAGUCUGCGAAUUCUGCUGUAUAUCUC, the self-cleavage worked out at 0.31.

With UAACAGGGGGCCACAGCAGAGGCGUUCACGUCGCAGCCCCUGUCGGAUUCUGGUCAAACUGCGGAUUCUGCUGUAUAUCUC, the self-cleavage is 0.07.

UAACAGGGGGCCACAGCAGAGGCGUUCGCGUCGCAGCCCCUGCCAGAUUCUGGUGAAUCCGCGAAUUCUGCUGUAUAUCUC: the self-cleavage worked out at 0.11.

UAACAGGGGGCCACAGCAGAGGCGUUCGCGUCGCAGCCCCUGUCAGAUUCUGGAGAAUCUGCGAAUUCUGCUGUAUAUCUC: the self-cleavage turned out to be 0.23.

For UAACAGGGGGCCACAGCAGAGGCGUUCGCGUCGCAGCCCCUGUCAGAUUCUGGCGAAUCUGCGGAUUCUGCUGUAUAUCUC, the self-cleavage was 0.1.

For the variant UAACAGGGGGCCACAGCAGAGGCGUUCACGUCGCAGCCCCUGUCGGAUUCUGGUGAAUCUGCGAAUUCUGCUGAAUAUCUC, the self-cleavage turned out to be 0.96.

Regarding UAACAGGGGGCCACAGCAGAGGCGUUCACGUCGCGGCCCCUGUCAGAUUCUGGUGAGUCUGCGAAUUCUGCUGUAUAUCCC, the self-cleavage is 1.3.

In the case of UAACAGGGGGCCACAGCAGAGGCGUUCACGUCGCAGCCCCUGUCUGAUUCUGGUGAGCCUGCGAAUUCUGCUGUAUAUCUC, the self-cleavage turned out to be 0.22.

Turning to UAACAGGGGGCCACAGCAGAGGCGUUCUCGUCGCAGCCCCUGCCAGAUUCUGGUGAAUCUGCGAAUUCUGCCGUAUACCCC, the self-cleavage amounted to 0.11.

Consider UAACAGGGGGCCACAGCAGAGGCGUUCACGUCGCAGCCCCUGUCGGAUUCUGGUGAAUCUGCGAAUUCUGCUGUAUACCUC, for which the self-cleavage was determined as 0.53.

As for UAACAGGGGGCCACAGCAGAGGCGUUCACGUCGCUGCCCCUGUCAGAUUCCGGUGAAUCUGCGAAUUCUGCUGUAUAUCUC, the self-cleavage was determined as 0.09.

UAACAGGGGGCCACAGCAGAGGCGUUCACGUCGCGGCCCCGGUGAGAUUCUGGUGGAUCUGCGAAUUCUGCUGUAUAUCAC: the self-cleavage stood at 0.04.

UAACAGGGGGCCACAGCAGAGGCGUUCACGUCGCAGCCCCUGUCGGAUACUGGUGAAUCUGCGAAUUCUGCUGUAUAUCUC: the self-cleavage was found to be 0.25.

Regarding UAACAGGGGGCCACAGCAGAGGCGUUCACGUCGCUGCCCGCGUCAGAUUCUGGUGAAUCCGCGAAUUCUGCUGUAUAUCUC, the self-cleavage was found to be 0.11.

Turning to UAACAGGGGGCCACAGCAGAGGCGUUCUCGUCGCAGCCCCUGUCAGAUCCUGGUGAAUCUGCGAAUUCUGCUGUAUGUCUC, the self-cleavage is 0.33.

Take UAACAGGGGGCCACAGCAGAGGCGUUCACGUCGCUGCCCCUGUCAGAUUCUGGCGAAUCUGCGAAUUCUGCUGUAUACCUC: the self-cleavage stood at 0.15.

Regarding UAACAGGGGGCCACAGCAGAGGCGUUCACGUCGCGGCCCUUGUCAGAUACUGGUGAAUCUGCGAAUUCUGCAGCAUAUCUC, the self-cleavage is 0.32.

On to UAACAGGGGGCCACAGCAGAGGCGUUCACGUCGCUGCCCCCGUCAGAUUCUGGUGAAUCUGCGAAUUCUGCAGUAUAUCUC, for which the self-cleavage came out at 0.08.

As to UAACAGGGGGCCACAGCAGAGGCGUUCACGUCGCUGCCCCUGUCGGAUUCUGGUGAAUCUGCGAAUUCUGCCGUAUAUCUC, the self-cleavage was determined as 0.09.

These data come from the RNAGym collection of RNA variant scans (doi:10.1093/nar/gkz1192).
